The campaign covered roughly 390,000 compounds. About 4,700 (1.2%) were called active. Inconclusive means that the source gave no clear call. Such entries were picked first, then a sample of the others. Calls come from the whole dose curve; as a rule, active = well fitted inhibition curve with a large enough effect; inconclusive = small, poorly fitted or top-dose-only effect, or another doubt; inactive = no such curve, though single readings can be large or run the other way. Potencies of inconclusive entries are doubtful fits and often do not repeat.
Target: DNA polymerase eta (Homo sapiens) (UniProt Q9Y253)
Chain of UniProt Q9Y253 (Q9Y253 whole entry, looked up): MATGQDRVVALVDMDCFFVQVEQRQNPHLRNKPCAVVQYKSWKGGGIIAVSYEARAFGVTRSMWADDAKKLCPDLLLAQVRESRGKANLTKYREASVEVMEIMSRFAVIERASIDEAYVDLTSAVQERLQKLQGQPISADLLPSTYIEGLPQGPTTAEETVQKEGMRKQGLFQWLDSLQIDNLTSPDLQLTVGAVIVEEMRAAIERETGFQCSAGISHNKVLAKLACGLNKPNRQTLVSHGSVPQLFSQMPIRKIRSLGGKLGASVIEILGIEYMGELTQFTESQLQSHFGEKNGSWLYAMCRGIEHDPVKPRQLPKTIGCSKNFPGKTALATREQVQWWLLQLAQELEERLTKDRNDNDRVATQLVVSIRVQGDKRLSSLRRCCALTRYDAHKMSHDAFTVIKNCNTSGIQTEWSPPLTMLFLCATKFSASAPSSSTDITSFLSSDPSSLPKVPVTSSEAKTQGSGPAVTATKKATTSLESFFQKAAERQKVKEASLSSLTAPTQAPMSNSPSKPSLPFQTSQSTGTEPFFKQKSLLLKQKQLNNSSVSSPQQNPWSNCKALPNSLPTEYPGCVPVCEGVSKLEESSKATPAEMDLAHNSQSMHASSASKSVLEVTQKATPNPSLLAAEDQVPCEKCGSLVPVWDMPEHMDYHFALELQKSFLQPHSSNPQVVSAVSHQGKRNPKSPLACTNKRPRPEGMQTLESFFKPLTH
Assay: qHTS for Inhibitors of Polymerase Eta
Details: recombinant Pol eta, fluorescent DNA replication assay; series mostly up to 114 µM; activity change, negative = inhibition: at the top concentration
Outline: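 Fluorescent replication assay: 50 nM final substrate added after a 15 min room-temperature compound preincubation with 10 nM enzyme. Signal taken at 0 min and again at 10 min.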
% is set by controls: 0 for no effect and ±100 for the full control effect; potency is the fitted concentration of half-maximal effect; tags give direction and shape of the fitted curve.

SMILES | activity change, negative = inhibition | Potency
Cc1cc2oc(=O)c(CC(=O)O)c(C)c2c2occ(-c3ccc(F)cc3)c12 | inactive: 10.7% | 
CCN(c1ccc(C)cc1)S(=O)(=O)c1nnc(NC(=O)c2ccco2)s1 |  | inconclusive: 79.4 µM [inhibitor, partial curve]
CCC1Oc2ccc(C)cc2N(CC(=O)NCc2ccco2)C1=O (stereo unspecified) |  | inconclusive: 39.8 µM [inhibitor, partial curve, poor fit]
COc1ccc(Cl)cc1NC(=O)CCS(=O)(=O)c1ccc(Br)cc1 |  | active: 20 µM
O=C(NCCc1ccc(Cl)cc1)c1ccc(Cn2c(=O)c3cccn3c3cccnc32)cc1 |  | inconclusive: 89.1 µM [inhibitor, single point]
O=C/C=C/c1c(-c2ccccc2)cc2oc3ccccc3cc1-2 |  | inconclusive: 50.1 µM [inhibitor, partial curve]
COCCCn1c(=S)[nH]c2sc3c(c2c1=O)CCCS3 | inactive: 3.5% | 
COc1ccc2nc(/N=C(\N)NC(=O)C(C)(C)C)nc(C)c2c1 | inactive: 5.54% | 
COc1ccc(/C=N/NC(=O)c2cccnc2)cc1COc1ccc([N+](=O)[O-])c(C)c1 | inactive: 2.02% | 
O=C(Nc1nnc(-c2ccncc2)s1)C1CCCO1 (stereo unspecified) |  | inconclusive: 25.1 µM [inhibitor, single point]
COc1cccc(C2c3[nH]c4ccccc4c3C[C@H]3C(=O)N(C4CC4)CC(=O)N23)c1 (stereo partly specified) |  | inconclusive: 35.5 µM [inhibitor, partial curve, poor fit]
O=S(=O)(c1ccccc1)c1nc(Nc2cccc(O)c2)sc1Cl | inactive: -10.8% | 
CN(c1ccccc1)S(=O)(=O)c1cccc(NC(=O)CN2CCc3ccccc3C2)c1 |  | inconclusive: 79.4 µM [inhibitor, partial curve, poor fit]
CCOC(=O)[C@@H]1[C@H]2COc3ccccc3[C@H]2N2C(=O)N(c3ccc(Cl)cc3)C(=O)[C@]12C | inactive: -13.6% | 
CN(c1ccccc1)S(=O)(=O)c1ccc(C(=O)OCC(=O)NCc2ccco2)cc1 |  | inconclusive: 28.2 µM [inhibitor, partial curve, poor fit]
O=C(Nc1cc2c(oc1=O)CCCC2=O)c1ccc(Cl)cc1 |  | active: 11.2 µM
COc1ccc(-c2nnc(SCC(=O)Nc3sc4c(c3C#N)CCC4)n2CC2CCCO2)cc1 (stereo unspecified) |  | inconclusive: 25.1 µM [inhibitor, partial curve]
Cc1ccc2nc(SCC(=O)Nc3ccc(C(N)=O)cc3)[nH]c2c1 | inactive: -17.9% | 
C/C(N)=C(/C#N)C(=O)CSc1nc2ccccc2c(=O)n1Cc1ccc(F)cc1 |  | active: 20 µM
CC(C)C[C@H]1CN=C(Nc2ccccc2)N1CCCC1CCCCC1 |  | inconclusive: 89.1 µM [inhibitor, partial curve, poor fit]
CCN(CC)CCCNc1nc2cc(OC)c(OC)cc2c2nc(-c3cccnc3)nn12 |  | inconclusive: 56.2 µM [inhibitor, partial curve]
CCOC(=O)C1(Cc2ccccc2)CCN(Cc2cnn(-c3ccccc3)c2)CC1 |  | inconclusive: 89.1 µM [inhibitor, partial curve, poor fit]

SMILES | activity change, negative = inhibition | Potency
CC(C)N1C(=O)S/C(=C\c2ccc(-c3ccc(Cl)c(C(=O)O)c3)o2)C1=O |  | active: 8.91 µM
Cc1ccc(-c2nnc(SCC(=O)Nc3sc(C)c(C)c3C#N)n2C)cc1 |  | inconclusive: 17.8 µM [inhibitor, partial curve, poor fit]
COCCN(C(=O)COC(=O)c1cc2c(s1)CCC2)c1c(N)n(Cc2ccccc2)c(=O)[nH]c1=O |  | active: 0.708 µM
COc1ccc(CCNC(=O)COC(=O)c2ccc([N+](=O)[O-])o2)cc1 |  | inconclusive: 28.2 µM [inhibitor, full curve]
CC(=O)Nc1nonc1-c1nc2ccccc2n1CC1CC1 | inactive: 10.1% | 
O=C(O)CSCC(=O)Nc1ccc(-c2nc3ccccc3s2)cc1 |  | active: 44.7 µM
NC(=O)c1c(NC(=O)c2ccc(N3C(=O)CCC3=O)cc2)sc2c1CCCC2 |  | inconclusive: 44.7 µM [inhibitor, partial curve]
CN(Cc1ccccc1)S(=O)(=O)c1ccc(NC(=S)NC(=O)C2CCCCC2)cc1 | inactive: -18.4% | 
O=C(O)c1ccc(N/N=C2/CCSc3ccc(F)cc32)cc1 |  | inconclusive: 28.2 µM [inhibitor, partial curve, poor fit]
CC(C)(C)c1nnc(N/N=C/c2ccc(Br)cc2)n(N)c1=O | inactive: -20.9% | 
COc1ccc(/C=C2\SC(=S)N(C(Cc3ccccc3)C(=O)O)C2=O)cc1 (stereo unspecified) | inactive: 4.46% | 
O=c1c2ccccc2nc2n1CCC2 |  | inconclusive: 63.1 µM [inhibitor, partial curve, poor fit]
O=c1[nH]c2ccc(NCc3ccccc3OCc3ccc(Cl)cc3)cc2[nH]1 | inactive: -22.7% | 
CCCC(=O)C1=C(O)C(C(=O)OC)C(C)(C)CC1=Nc1cccc2ccccc12 (stereo unspecified) |  | inconclusive: 50.1 µM [inhibitor, partial curve, poor fit]
O=c1cc(/C=C/c2ccccc2)oc2c1ccc1ccccc12 |  | inconclusive: 12.6 µM [inhibitor, full curve, poor fit]
CCCOC(=O)c1c(NC(=O)C2c3ccccc3Oc3ccccc32)sc2c1CCC(C)C2 (stereo unspecified) | inactive: -10.6% | 
COc1ccc(-c2cn3c(n2)sc2cc(C(=O)NCCCN4CCCCCC4)ccc23)cc1 |  | inconclusive: 89.1 µM [inhibitor, partial curve]
Cc1ccccc1NC(=O)/C(C#N)=C\c1cc(C)n(-c2ccc(C(=O)O)cc2)c1C |  | active: 22.4 µM
O=C(COC(=O)c1cncc(Br)c1)Nc1nnc(-c2ccccc2)o1 |  | active: 39.8 µM
CCOC(=O)C1=C(C)N(C[C@@H]2CC[C@@H](Cc3ccc(-c4ccccc4)cc3)O2)C(=O)NC1c1ccc(SCc2ccco2)c([N+](=O)[O-])c1 (stereo partly specified) |  | active: 12.6 µM
COc1ccc(NC(=O)CN2C(=O)CSC(C)C2=O)cc1 (stereo unspecified) | inactive: -26.2% | 
COc1ccc(/C=C2/C(=O)N(c3ccccc3)N=C2C)cc1Br |  | inconclusive: 79.4 µM [inhibitor, partial curve]

SMILES | activity change, negative = inhibition | Potency
CCOC(=O)Cc1nnc(NC(=O)COc2ccc(OC)cc2)s1 |  | inconclusive: 25.1 µM [inhibitor, single point]
Cc1ccccc1Nc1nnc(SCC(=O)NCc2ccco2)s1 |  | inconclusive: 20 µM [inhibitor, partial curve]
Cc1cc(C)c2c(n1)nn1c(N3CCN(c4ccccc4C)CC3)cc(C)nc21 |  | inconclusive: 31.6 µM [inhibitor, partial curve, poor fit]
COc1ccc(/C=N/NC(N)=S)cc1 | inactive: -2.05% | 
O=C(O)c1cc(N/N=C/c2ccncc2)ccc1Cl | inactive: 3.82% | 
O=C(C1=C[C@H](c2ccccc2)C[C@H](OCc2ccc(CO)cc2)O1)N1CCN(Cc2ccccc2)CC1 |  | inconclusive: 100 µM [inhibitor, single point]
CC(C)c1ccc2oc(-c3cc(NC(=O)c4cccnc4)ccc3Cl)nc2c1 |  | inconclusive: 7.08 µM [inhibitor, partial curve, poor fit]
COCCN(C(=O)COC(=O)/C=C/c1ccco1)c1c(N)n(Cc2ccccc2)c(=O)[nH]c1=O |  | inconclusive: 15.8 µM [inhibitor, partial curve, poor fit]
O=C(Nc1cnn(Cc2ccccc2)c1)c1cc2nc(-c3ccco3)cc(C(F)(F)F)n2n1 |  | inconclusive: 25.1 µM [inhibitor, partial curve, poor fit]
Cc1ccc(S(=O)(=O)n2ccc3c(OCCOCCSCC(NC(=O)OC(C)(C)C)C(=O)O)cccc32)cc1 (stereo unspecified) |  | inconclusive: 79.4 µM [inhibitor, partial curve, poor fit]
CCCCC(=O)N(c1ccc(C(=O)O)cc1)c1nc(-c2ccc(Cl)cc2)c(CC)s1 |  | inconclusive: 50.1 µM [inhibitor, partial curve, poor fit]
COc1ccc(OC)c(Nc2nc(-c3ccncc3)nc3ccccc23)c1 |  | inconclusive: 15.8 µM [inhibitor, full curve, poor fit]
CC1(C)CC(=O)C2=C(C1)c1c(ccc3ccccc13)NC2c1cc([N+](=O)[O-])cc([N+](=O)[O-])c1O (stereo unspecified) |  | active: 28.2 µM
Cc1sc(NC(=O)c2sc3nc4c(C)cccc4cc3c2N)c(C#N)c1C |  | active: 2.82 µM
Cc1[nH]nc2nc(SCC(=O)NC3CCCCC3)n(-c3ccc(Br)cc3)c(=N)c12 |  | inconclusive: 56.2 µM [inhibitor, partial curve]
COC(=O)/C=c1/s/c(=C(\C#N)C(=O)NCc2ccco2)n(-c2ccccc2)c1=O |  | inconclusive: 25.1 µM [inhibitor, partial curve, poor fit]
NS(=O)(=O)c1ccc(CCNc2nc3c(-c4cccc(F)c4)nnn3c3ccccc23)cc1 |  | inconclusive: 15.8 µM [inhibitor, partial curve, poor fit]
CC(=O)NC1=NC(=O)/C(=C/c2cn(C(C)=O)nc2-c2ccccc2)S1 |  | inconclusive: 50.1 µM [inhibitor, partial curve]
Nc1ccc(C(=O)Nc2ccc3c(O)cc(S(=O)(=O)O)cc3c2)cc1 |  | active: 11.2 µM
CCc1cc(C(=O)NCC(c2ccc(OC)cc2)N2CCOCC2)sc1C (stereo unspecified) |  | inconclusive: 10 µM [inhibitor, partial curve]
Cc1ccsc1/C=N/n1c(-c2cc(-c3ccccc3)n[nH]2)n[nH]c1=S |  | inconclusive: 50.1 µM [inhibitor, partial curve, poor fit]
N#C/C(=C\c1ccc(N2CCCCC2)o1)C(=O)Nc1cccc(Br)c1 |  | inconclusive: 25.1 µM [inhibitor, full curve, poor fit]

Source: PubChem BioAssay AID588591 (National Center for Advancing Translational Sciences (NCATS), 2011)
